{"source": "ChEMBL document CHEMBL4888484", "about": "“Replenishing the malaria drug discovery pipeline: Screening and hit evaluation of the MMV Hit Generation Library 1 (HGL1) against asexual blood stage Plasmodium falciparum ,using a nano luciferase reporter read-out” (2022)", "note": "Among all 150,000 compounds or so, about 540 (0.36%) showed an effect of 50% or more. The list shows a part of the results.", "data": [{"test_system": "Plasmodium falciparum", "assay": "Primary screen in NF54 nanoGlo assay, in single point, at 2uM, 72h; a lower Z score goes with more inhibition", "type": "functional, Erythrocyte", "conditions": "timepoint 72 hour", "units": {"% Inhibition": "%"}, "values": [{"molecule": "Cc1cccc(-c2noc(-c3cn(-c4ccc(C)c(C)c4)c(=O)c4ccccc34)n2)c1", "% Inhibition": -2, "Z score": 0.27}, {"molecule": "COc1ccc(N2CCN(C(=O)c3cc(NC(C)=O)cc4nc(C)ccc34)CC2)cc1", "% Inhibition": -8, "Z score": 1.07}, {"molecule": "CC(C)(C)C[C@H]1CCCN1c1ccncc1C(N)=O", "% Inhibition": -9, "Z score": 1.25}, {"molecule": "O=C(CNCCN1CCCOC1=O)NC1CCCCCCC1", "% Inhibition": -5, "Z score": 1.1}, {"molecule": "COc1ccc(Cl)cc1C(=O)Nc1ccnn1C[C@H]1CCOC1", "% Inhibition": 3, "Z score": -0.37}, {"molecule": "Cc1ccc(C(C)NC(C)c2ncc(C(C)(C)C)o2)o1", "note": "(centres undefined)", "% Inhibition": -5, "Z score": 0.52}, {"molecule": "CCCc1ccc(CN2CCC(c3cc[nH]n3)CC2)o1", "% Inhibition": -8, "Z score": 0.95}, {"molecule": "O=C1Nc2cc(C(=O)N3CCCCCC3)ccc2N2CCCC[C@@H]12", "% Inhibition": -26, "Z score": 4.84}, {"molecule": "O=C(CCNC(=O)Cc1n[nH]c(=O)c2ccccc12)NCc1cccnc1", "% Inhibition": -15, "Z score": 2.34}, {"molecule": "CCc1nn(C)c(OC)c1CNS(=O)(=O)c1cccc2c1OC(C)(C)C2", "% Inhibition": -7, "Z score": 0.62}, {"molecule": "Cc1csc(C(=O)NCC2(OCCO)CCCC2)c1", "% Inhibition": -5, "Z score": 0.63}, {"molecule": "O=C(NCc1cccc(F)c1)[C@H]1CCCN(c2nc3ccccc3n(Cc3ccccc3)c2=O)C1", "% Inhibition": 33, "Z score": -0.55}, {"molecule": "O=C(Nc1ccc(OC2COC2)cc1)N1CCc2c(F)cc(F)cc2C1", "% Inhibition": -10, "Z score": 1.17}, {"molecule": "CC(C)(NC(=O)CCCn1cncn1)c1c(Cl)cccc1Cl", "% Inhibition": 5, "Z score": -0.62}, {"molecule": "O=C(NC[C@H]1CS(=O)(=O)c2ccccc2O1)c1ccc(C(F)F)nc1", "% Inhibition": -3, "Z score": 0.45}, {"molecule": "CC(C)n1cc(C(=O)N(C)C[C@H]2CCCN3CCCC[C@@H]23)cn1", "% Inhibition": -2, "Z score": 0.29}, {"molecule": "COc1cc2c(cc1OC)CN(c1nc(C)nc3c1cnn3C)CC2", "% Inhibition": 2, "Z score": -0.34}, {"molecule": "CN(Cc1cccc(Br)c1O)C(=O)OC(C)(C)C", "% Inhibition": -6, "Z score": 0.75}, {"molecule": "O=C(CCc1cccnc1)Nc1ccccc1N1CCc2ccccc2C1", "% Inhibition": -8, "Z score": 1.24}, {"molecule": "N[C@H]1CCCN(C2CCN(c3ccccc3Cl)CC2)C1", "% Inhibition": -7, "Z score": 0.8}, {"molecule": "C[C@@H](c1ccccc1)n1nnnc1N1Cc2cnn(CCO)c2C1", "% Inhibition": -5, "Z score": 0.44}, {"molecule": "CN1CCCC[C@@H]1CCNC(=O)c1ccc(N[C@H]2CC[C@H](O)CC2)nc1", "% Inhibition": -4, "Z score": 0.86}, {"molecule": "CC(C)C(=O)NCCN(C)Cc1ccc(C#N)cc1Br", "% Inhibition": -19, "Z score": 2.19}, {"molecule": "COCCCNC(=O)c1cnn(-c2nccc(-c3ccc(C)o3)n2)c1C", "% Inhibition": -5, "Z score": 0.73}, {"molecule": "O=C(c1ccccc1F)N(Cc1cccs1)c1ccccn1", "% Inhibition": 31, "Z score": -3.59}, {"molecule": "Cc1cc(Br)cn(Cc2nccc(N)n2)c1=O", "% Inhibition": -6, "Z score": 0.78}, {"molecule": "CC(NC(=O)C1CC(=O)N(c2cc(Cl)cc(Cl)c2)C1)C1CCCO1", "note": "(centres undefined)", "% Inhibition": 2, "Z score": -0.23}, {"molecule": "CN(c1ccc(N2CCOCC2)nc1)S(=O)(=O)Cc1ccon1", "% Inhibition": -11, "Z score": 1.75}, {"molecule": "COC(=O)c1nc(NC(=O)c2ccccc2-n2nnnc2C)sc1C", "% Inhibition": -16, "Z score": 1.93}, {"molecule": "O=C(O)c1ccc(CN2CCOC[C@@H]2CC2CCOCC2)s1", "% Inhibition": -8, "Z score": 1.64}, {"molecule": "Cc1n[nH]c(C)c1CN(C)Cc1noc(C2CC2)n1", "% Inhibition": -10, "Z score": 1.88}, {"molecule": "C[C@@H](c1ccncn1)N(C)Cc1ccc(C(=O)Nc2cnns2)cc1", "% Inhibition": -8, "Z score": 1.05}, {"molecule": "Cc1cc(-c2csc(NC(=O)c3c(C4CC4)cnn3C)n2)c(F)cc1F", "% Inhibition": 4, "Z score": -0.5}, {"molecule": "CN1CCN(c2cc(NC(=O)c3cccc(Br)c3)ncn2)CC1", "% Inhibition": -9, "Z score": 1.8}, {"molecule": "Cc1cc(Nc2ccc(F)cc2)nc2nn(CC(C)C)c(=O)n12", "% Inhibition": -1, "Z score": 0.23}, {"molecule": "CCN(CC)S(=O)(=O)c1cc2c(cc1N1CCN(C)CC1)Oc1ccccc1NC2=O", "% Inhibition": -3, "Z score": 0.56}, {"molecule": "O=C(Nc1cc(Oc2ccccc2)cc(Oc2ccccc2)c1)c1ccc(Br)cc1", "% Inhibition": 9, "Z score": -1.38}, {"molecule": "COCC(C)(C)CNC(=O)CCc1ccnn1C", "% Inhibition": -19, "Z score": 1.72}, {"molecule": "COc1cc(CN(C)C(=O)Nc2cccc(OC)n2)sn1", "% Inhibition": -11, "Z score": 0.95}, {"molecule": "CCCC(=O)N[C@](C(=O)OCC)(N1CCCCC1)C(F)(F)F", "% Inhibition": -7, "Z score": 0.84}, {"molecule": "Cc1ccc(CN2CCN(CCC(C)(C)C)[C@@H]3CS(=O)(=O)C[C@@H]32)o1", "% Inhibition": -10, "Z score": 1.35}, {"molecule": "O=C(CC1CCN(C(=O)c2nnc(C(=O)Nc3ccccc3)s2)CC1)NCc1cccnc1", "% Inhibition": -16, "Z score": 1.41}, {"molecule": "N#Cc1cc(Cn2nnnc2-c2ccncc2)ccc1F", "% Inhibition": -10, "Z score": 1.54}, {"molecule": "Cc1cccc(NC(=O)N2CCCCC[C@@H]2CN2CCCC2)c1", "% Inhibition": -10, "Z score": 1.53}, {"molecule": "Cc1ccc(-c2cnn([C@@H](C)C(=O)Nc3ccc(F)cc3C)c(=O)n2)cc1", "% Inhibition": -11, "Z score": 1.81}, {"molecule": "COC(=O)[C@H](CN)Oc1ccc(F)cc1", "% Inhibition": 2, "Z score": -0.27}, {"molecule": "Fc1ccc(CNc2cccc3nonc23)cc1Cl", "% Inhibition": -12, "Z score": 1.34}, {"molecule": "CC1(C)c2[nH]c3ccccc3c2C[C@H]2C(=O)N(C3CCCC3)CC(=O)N21", "% Inhibition": 4, "Z score": -0.54}, {"molecule": "CCC(CC)NC(=O)Cc1cccs1", "% Inhibition": -9, "Z score": 1.72}, {"molecule": "CS(=O)(=O)N1CCC[C@H](Cn2nnc(-c3ccccc3)n2)C1", "% Inhibition": -1, "Z score": 0.12}, {"molecule": "CS(=O)(=O)c1ccc(S(N)(=O)=O)cc1", "% Inhibition": -14, "Z score": 1.3}, {"molecule": "CC[C@@H](c1nnc(COc2cc(C)cc(C)c2)o1)N1CCCC1=O", "% Inhibition": -8, "Z score": 1.48}, {"molecule": "Cc1cc(C)c(CNC(=O)c2cccnc2)c(=O)[nH]1", "% Inhibition": -12, "Z score": 1.88}, {"molecule": "N#CCCN(CC(F)(F)F)C(=O)[C@@H]1CCOc2ccc(Cl)cc21", "% Inhibition": -19, "Z score": 2.56}, {"molecule": "Cc1nc(N[C@H]2CC2(C)C)cc2nncn12", "% Inhibition": 17, "Z score": -2.19}, {"molecule": "CC1(C)NC(=O)N(CNc2ccc(F)cc2)C1=O", "% Inhibition": -43, "Z score": 5.06}, {"molecule": "CCc1cccc(NC(=O)Cn2c(=O)n(Cc3cccc(Cl)c3)c(=O)c3ccccc32)c1", "% Inhibition": 29, "Z score": -3.96}, {"molecule": "COc1ncc(C(=O)N(CCO)Cc2ccc(C)s2)cn1", "% Inhibition": -6, "Z score": 0.74}, {"molecule": "Cc1nc(N(C)C)nc(C)c1NC(=O)Nc1ccc2c(c1)OCO2", "% Inhibition": -8, "Z score": 1.29}, {"molecule": "CN1CC[C@@H](c2nc(Cc3ccc(F)cn3)no2)S1(=O)=O", "% Inhibition": -4, "Z score": 0.5}, {"molecule": "N#Cc1ccc(OC(F)(F)F)c(Cl)c1", "% Inhibition": -13, "Z score": 1.66}, {"molecule": "Cc1ccc(C)c(S(=O)(=O)N2CCC(F)(c3nc(CC(C)C)no3)CC2)c1", "% Inhibition": -5, "Z score": 0.89}, {"molecule": "COCC[C@]1(c2noc(C)n2)CCCN(S(=O)(=O)c2ccc(Cl)s2)C1", "% Inhibition": -1, "Z score": 0.2}, {"molecule": "COCCn1cc(CN(C)CC(=O)N2CCCCCC2)ccc1=O", "% Inhibition": -1, "Z score": 0.25}, {"molecule": "COc1cccc(C=Cc2nc3cnccc3c(=O)[nH]2)c1", "% Inhibition": -6, "Z score": 0.74}, {"molecule": "CCCOc1cccc(CN2C(=O)NC3(CCC3)C2=O)c1", "% Inhibition": -10, "Z score": 1.93}, {"molecule": "CN(C)CCN(C[C@H]1CCCO1)C(=O)c1coc2ccccc12", "% Inhibition": 11, "Z score": -1.17}, {"molecule": "NS(=O)(=O)N1CCC[C@H]1C(=O)NC1CCCCCCC1", "% Inhibition": 2, "Z score": -0.45}, {"molecule": "O=C(c1csnn1)N1CCC[C@H](c2nc3ccc(F)cc3o2)C1", "% Inhibition": -15, "Z score": 2.05}, {"molecule": "CN(CCCNC(=O)c1cccn(C)c1=O)c1ccccc1", "% Inhibition": 1, "Z score": -0.15}, {"molecule": "Cn1nc(C(=O)Nc2ccnn2Cc2ccc(Cl)cc2)c2ccccc2c1=O", "% Inhibition": -5, "Z score": 0.79}, {"molecule": "COc1c(N)ccnc1-c1ccc(C(=O)N[C@@H](C)CCn2cccn2)cc1", "% Inhibition": 3, "Z score": -0.32}, {"molecule": "CCc1nc2cccnc2n1[C@H]1CCN(C(=O)NCCCOC)C1", "% Inhibition": -4, "Z score": 0.48}, {"molecule": "Cc1ccc(-c2cc(C(=O)NCC3CC3)n[nH]2)s1", "% Inhibition": -14, "Z score": 1.37}, {"molecule": "Cc1ccc(Oc2ccc(C(=O)Nc3ccc4c(c3)OCO4)cc2)nn1", "% Inhibition": -1, "Z score": 0.2}, {"molecule": "c1nc(N2CC[C@]3(CCOC3)C2)c2cn[nH]c2n1", "% Inhibition": -3, "Z score": 0.35}, {"molecule": "CC(=O)c1ccc(NCCC(=O)N2CCCCCC2)nc1", "% Inhibition": -11, "Z score": 1.87}, {"molecule": "CN1CCC[C@H]1c1nc(-c2nccc3ccccc23)no1", "% Inhibition": 4, "Z score": -0.53}, {"molecule": "CC[C@H](NC1CCN(c2nnc(-c3ccccc3)s2)CC1)c1cccnc1", "% Inhibition": 17, "Z score": -2.22}, {"molecule": "Cc1nc2cc(-c3noc(-c4ccc(C(F)(F)F)cc4)n3)ccc2n(C)c1=O", "% Inhibition": -3, "Z score": 0.3}, {"molecule": "CCC(C)N(Cc1cccs1)CC(O)COCC(C)C", "note": "(centres undefined)", "% Inhibition": 10, "Z score": -1.28}, {"molecule": "O=C(NCC(=O)N1CCC(C(=O)N2CCCCCC2)CC1)c1sc2ccccc2c1Cl", "% Inhibition": -10, "Z score": 1.2}, {"molecule": "O=S(=O)(c1ccc(-c2csc(N3N=C(c4ccccc4)C[C@H]3c3ccccc3)n2)cc1)N1CCCCC1", "% Inhibition": -2, "Z score": 0.36}, {"molecule": "Cc1[nH]nc(CCc2ccccc2)c1NC(=O)c1cc(F)cc(F)c1", "% Inhibition": 12, "Z score": -1.56}, {"molecule": "COc1ccccc1[C@@H]1C=C(c2ccc(F)cc2)Nc2nnnn21", "% Inhibition": -5, "Z score": 0.68}, {"molecule": "COCc1nc(CN(C)C)n(-c2ccc(Cl)c(Cl)c2)n1", "% Inhibition": -10, "Z score": 0.92}, {"molecule": "CC(=O)c1cc(C)ccc1OS(=O)(=O)c1ccc(N2CCCC2=O)cc1", "% Inhibition": -14, "Z score": 1.75}]}]}
